Test results taken from PMC6919601, “Identification of Plasmodium dipeptidyl aminopeptidase allosteric inhibitors by high throughput screening” (PLoS ONE, 2019).
Among all 110,000 compounds or so, about 230 (0.21%) showed an effect of 50% or more. Some of the results follow.

molecular target: DPAP1 (Plasmodium falciparum, UniProt Q8IIJ9); experiment: primary screen, percent inhibition; read by cleavage of a fluorogenic dipeptide substrate; higher = more effect of the substance; design: species or system P. falciparum D10 trophozoite lysates; single well
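Note: 30 min substrate incubation versus DMSO and 10 µM JCP410 controls.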

Chain of DPAP1 (Q8IIJ9 whole entry, looked up): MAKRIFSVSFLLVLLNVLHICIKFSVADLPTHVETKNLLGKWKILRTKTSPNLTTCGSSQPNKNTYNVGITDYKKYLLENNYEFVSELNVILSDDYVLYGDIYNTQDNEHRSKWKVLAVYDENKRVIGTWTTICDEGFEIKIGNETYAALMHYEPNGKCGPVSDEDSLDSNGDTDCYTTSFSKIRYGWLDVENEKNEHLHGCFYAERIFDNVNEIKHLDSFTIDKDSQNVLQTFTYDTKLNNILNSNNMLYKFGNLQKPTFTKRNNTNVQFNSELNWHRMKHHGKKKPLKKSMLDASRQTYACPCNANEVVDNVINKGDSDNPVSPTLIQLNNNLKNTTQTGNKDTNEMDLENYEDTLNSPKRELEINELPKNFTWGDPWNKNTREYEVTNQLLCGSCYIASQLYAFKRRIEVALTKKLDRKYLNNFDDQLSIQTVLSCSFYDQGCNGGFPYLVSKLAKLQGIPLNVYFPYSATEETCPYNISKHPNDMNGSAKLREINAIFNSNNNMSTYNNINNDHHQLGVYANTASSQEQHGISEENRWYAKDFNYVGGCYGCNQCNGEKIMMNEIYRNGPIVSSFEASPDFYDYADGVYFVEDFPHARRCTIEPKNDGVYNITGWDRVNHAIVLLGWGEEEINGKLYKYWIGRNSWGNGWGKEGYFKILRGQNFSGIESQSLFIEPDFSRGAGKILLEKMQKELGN

Compound | % Inhibition @ 10 uM [%]
CCNC(=O)C1CCCN(S(=O)(=O)N2CCCCC2)C1 (stereo not shown) | 0.335
Cc1csc(NC(=O)c2cnn(-c3ccccc3)c2-n2cccc2)n1 | 4.17
Cc1ccc(N(CC(=O)N2CCN(C(c3ccccc3)c3ccccc3)CC2)S(C)(=O)=O)c(C)c1 | 6.4
Cc1cc(OCC(=O)Nc2ccc(C(N)=O)cc2)c(C(C)C)cc1Br | 1.94
CCN(CCN(C)C)Cc1cc(F)ccc1F | 1.9
Cc1ccc(C(CC(=O)NCc2ccco2)N2Cc3ccccc3C2=O)cc1 (stereo not shown) | 5.08
COC(=O)c1sc(NC(=O)c2ccccc2Cl)nc1C | 2.17
COc1ccc(Nc2nc(N)nc(CSc3ncccn3)n2)cc1 | -0.872
Cc1ccc(CS(=O)Cc2ccc(C(=O)NCc3ccco3)o2)cc1 (stereo not shown) | 3.36
Cc1ccc(C(C)C)c(OCc2nc3c4cnn(-c5ccccc5)c4ncn3n2)c1 | -3.96
CC1CC(=O)C2=C(C1)OC(N)=C(C#N)C21C(=O)Nc2ccc(Br)cc21 (stereo not shown) | -4.87
CN1CCCN(C(=O)/C(=C/c2cccs2)NC(=O)c2ccccc2)CC1 | -0.996
CN(C)c1ccc(C2CC(c3ccccc3)=NN2C(=O)c2cccs2)cc1 (stereo not shown) | -4.59
CCCC/C(=N/O)c1c(C)[nH]c2ccccc12 | 2.62
CSC1=NSC2=NC(=O)/C(=C\c3ccc(C(=O)O)cc3)C(=N)N12 | 1.83
Cc1cc(C)c(C#N)c(SCC(=O)c2ccc(Br)cc2)n1 | 0.385
CCOc1cc2c(cc1OC)C(c1ccc(F)c(F)c1)NCC2 (stereo not shown) | 0.26
COc1ccccc1N1CCN(C(=O)c2cccc(C(=O)N3CCN(c4ccccc4OC)CC3)c2)CC1 | 0.0792
COc1ccc(OCC(O)CN(CCO)CCO)cc1 (stereo not shown) | 1.31
C=CCOc1cccc(-c2nc(O)c3c(n2)Oc2ccccc2C3)c1 | -2.84
CCC(C)c1ccc(NC(=O)c2ccccc2OC)cc1 (stereo not shown) | 12.7
C#CCOc1cc(Br)c(/C=C2\SC(=O)N(C)C2=O)cc1OC | -3.06
N#CC1=C(N)OC2=C(C(=O)CC(c3ccccc3)C2)C1c1ccc2ccccc2c1 (stereo not shown) | 15.8
CC1=C(C(=O)OCCc2ccccc2)C(c2ccc(Cl)c(Cl)c2)NC(=O)N1 (stereo not shown) | -2.87
Cc1ccccc1N1CCN(Cc2c(C)n(C)n(-c3ccccc3)c2=O)CC1 | 3.35

Compound | % Inhibition @ 10 uM [%]
Cn1cnc2nc(Cl)nc(NCCO)c21 | 5.37
CCN(c1ccccc1)S(=O)(=O)c1cc([N+](=O)[O-])ccc1N | -0.239
Cc1cc(C)nc(NS(=O)(=O)c2ccc(NC(=S)NC(=O)C34CC5CC(CC(C5)C3)C4)cc2)n1 | -8.3
CCN(Cc1nc(-c2ccc(OC)c(OC)c2)no1)S(=O)(=O)c1ccc(Cl)cc1 | 0.758
Cc1cc(C)c2c(n1)SCC(=O)N2CC(=O)NCc1ccccn1 | -2.37
C=CCn1c(-c2ccc(Br)cc2)nc2ccccc21 | -0.551
C=CCNC(=O)c1ccccc1NC(=O)CSCc1cccc(Cl)c1 | 3.05
O=C(Nc1ncc(Cc2ccccc2Cl)s1)c1cc2ccccc2c(=O)o1 | -3.33
O/C(=C\c1nc2ccccc2nc1O)C(F)F | -2.47
CC1=C(C(=O)Nc2ccccc2)C(c2cccs2)C(C#N)=C(SCc2ccc(Cl)cc2)N1 (stereo not shown) | 7.11
Cc1cccc(CN2CCN(CC(=O)NC3CCCCCC3)C2=O)c1 | -4.2
O=C(NC1CCCC1)c1ccc([N+](=O)[O-])cc1Cl | 1.83
COc1cc2c(OC)cccc2cc1C(=O)O | 0.776
CC(=O)C1=C(O)C(=O)N(CCc2c(C)[nH]c3ccccc23)C1c1cccc(F)c1 (stereo not shown) | -0.703
CCSc1nnc(NC(=O)CSc2nnc3c4cc(Br)ccc4n(C)c3n2)s1 | -4.24
CCO/C(O)=C1\C(C)=NC2=C(C(=O)c3ccccc32)C1c1ccc(C(F)(F)F)cc1 (stereo not shown) | -1.86
COc1ccccc1CNc1nc2c(-c3cccc(F)c3)nnn2c2ccccc12 | 2.04
Cc1ccc(C)c(S(=O)(=O)N2CC(=O)N(CCc3ccccc3)C(=O)C2)c1 | 1.88
O=C(Nc1nc(-c2ccccc2)cs1)C1Cc2ccccc2CN1S(=O)(=O)c1cccs1 (stereo not shown) | -10.1
CCC1CCc2nc(S)c(C#N)c(C(F)(F)F)c2C1 (stereo not shown) | 88.2
COC(=O)c1cccc2c1NC(=O)C2=O | 2.76
CCOc1ccc(/N=C2/S/C(=C\c3ccccc3O)C(=O)N2CC)cc1 | -1.61
Cc1onc(-c2ccccc2)c1C(=O)NCCNC(=O)c1c(-c2ccccc2)noc1C | -8.14
O=S(=O)(Nc1cc(Cl)c(Cl)cc1Cl)c1ccc(F)cc1 | 2.22
O=C(/C=C/c1ccccc1)N1CCCC1 | 4.66

Compound | % Inhibition @ 10 uM [%]
CCCCc1ccc(NS(=O)(=O)c2cc(Cl)ccc2Cl)cc1 | -0.856
Cc1ccc(CCNC(=O)Cn2nc(C)c3c(C)n(-c4ccccc4)nc3c2=O)cc1 | 4.65
FC(F)(F)c1ccccc1CNc1ccc2c[nH]nc2c1 | -3.27
CC(CN1CCN(C)CC1)OC(=O)c1ccccc1Br (stereo not shown) | -3.63
CC1C/C(=C/c2cccn2C)C(=O)/C(=C/c2cccn2C)C1 (stereo not shown) | 0.287
C=CCOc1ccc(C2CC(=O)OC3=C2C(=O)c2ccccc2C3=O)cc1 (stereo not shown) | -4.73
CCN1CCC(N2CCCCCCC2)CC1 | 2.91
Cc1cc(/C=C2\SC(Nc3ccc(F)cc3)=NC2=O)c(C)n1-c1ccncc1 | -1.38
CC1(C)CC(=O)C2=C(C1)OC(N)=C(C#N)C21C(=O)N(Cc2ccccc2Cl)c2ccccc21 (stereo not shown) | -4.03
Cc1cccc(CN2CCN(c3ccccc3F)CC2)c1 | -5.57
CC(C)(C)n1ncc2c(=O)n(Cc3c(F)cccc3Cl)cnc21 | -1.75
CCOc1ccc(-c2csc(/C(C#N)=C/c3ccc(Cl)cc3Cl)n2)cc1 | 1.92
COc1ccc2[nH]c3c(=O)n(CC(=O)N(Cc4ccccc4)C(C)C)c(=S)[nH]c3c2c1 | 1.15
Cc1ccc(OCC(O)CN2CCN(c3ccccc3)CC2)cc1C (stereo not shown) | 0.512
COc1ccc(CN2CCN(S(=O)(=O)c3ccc(C)cc3)CC2)cc1 | 2.06
O=S(=O)(NCc1ccc2c(c1)OCO2)c1ccc(-n2cnnn2)cc1 | 0.635
O=C(O)c1ccc2c(c1)sc1nc(-c3ccc(Cl)cc3)cn12 | 1.72
CCCN(CCC)C(=O)Cc1c(C)nc2c(-c3ccccc3)c(C)nn2c1C | 0.953
CCCOc1ccc(C(CC(=O)O)NC(=O)c2ccc3c(c2)OCO3)cc1 (stereo not shown) | 1.03
CCCOc1ccc(C(=O)Nc2ccc(N(CC)CC)cc2)cc1 | 3.35
COc1ccc(C2NC(=O)c3ccccc3O2)cc1OC (stereo not shown) | -2.42
FC(F)(F)c1cccc(-c2ccc(-c3nn4c(-c5ccco5)nnc4s3)o2)c1 | -9.48
CCNc1nc(OCC(F)(F)F)nc(N(c2ccccc2)c2ccccc2)n1 | 2.62
C/C(=C\c1ccccc1)CN1CCN(c2cccc(C(F)(F)F)c2)CC1 | 0.0792
COC(=O)c1ccc(C2CC(=O)NC3=C2C(=O)CC(c2cc(OC)ccc2OC)C3)cc1 (stereo not shown) | -3.51

Compound | % Inhibition @ 10 uM [%]
O=C(NC1CCCCCC1)C1CCN(S(=O)(=O)N2CCC3(CC2)OCCO3)CC1 | 2.18
Cc1ccccc1Oc1cc(-n2ncc3c2CCCC3=O)ncn1 | 3.58
COc1ccc(CN2CCC(O)CC2)cc1C | 7.72
Cc1ccc(-c2noc(CCC(=O)NCCN3CCc4ccccc4C3)n2)cc1 | 3.51
COc1ccc(OC)c(CCNC(=O)NCc2noc3ccccc23)c1 | 0.568
CC(C)Cc1nn2cc(-c3ccccc3)nc2s1 | -0.946
Cc1ccc(S(=O)(=O)NC(C)C(=O)NCCC2=CCCCC2)cc1 (stereo not shown) | 5.97
O=C(Cc1ccc(Cl)cc1)Nc1cc(Cl)ccn1 | 4.83
Cc1cc2oc(=O)cc(C)c2c2c3c([nH]c12)CCCC3 | 5.55
O=C(c1cc2nc(-c3ccco3)cc(C(F)(F)Cl)n2n1)N1CCCCCC1 | 1.27
Cc1ccc(C)n1CCN1CCN(C(=O)C(C)(C)C)CC1 | -5.2
CSc1ccc(CCNC(=O)NCc2noc3ccc(C)cc23)cc1 | -2.26
Cc1cccc(OCCCCCCN2CCCC2)c1 | 4.33
CC1CCN(S(=O)(=O)N2CCC(C(=O)O)CC2)CC1 | -1.99
CCOC(=O)c1oc2ccc(S(=O)(=O)n3nc(-c4ccc(Cl)cc4)cc3N)cc2c1C | -2.19
O=C(CCCCCN1C(=O)c2ccccc2C1=O)Nc1cccc(O)c1 | -5.38
Cc1cc2ncn(CCCOc3ccc(Cl)cc3)c2cc1C | -5.92
O=C(O)c1cc(C(=O)O)cc(N2C(=O)C3C4CCC(C4)C3C2=O)c1 (stereo not shown) | 3.86
Cc1cc(C(=O)OCCN2CCN(C3=NS(=O)(=O)c4ccccc43)CC2)c2ccccc2n1 | 0.275
COC(=O)[C@H](Cc1ccccc1)NC(=O)[C@@H]1CCCN1C#N | 6.4
COc1ccc(OC)c(NC(=O)c2c(-c3c(Cl)cccc3Cl)noc2C)c1 | 4.59
COc1ccc(C2C3=C(O)CCCC3=Nc3nc(SCC(C)C)nn32)cc1OC (stereo not shown) | 1.22
CCOC(=O)C(C(=O)OCC)(N1CCOCC1)N1CCOCC1 | -3.75
CC(C)CCn1c(=O)c2ccccc2n2c(CCC(=O)NCc3ccccc3)nnc12 | 0.277
NC(=O)C1CCN(c2nc(-c3cccc4ccccc34)cs2)CC1 | 1.92
